{"sequences": {"note": "The chains behind the UniProt entries cited, without tags or fusion partners.", "UniProt P27694": "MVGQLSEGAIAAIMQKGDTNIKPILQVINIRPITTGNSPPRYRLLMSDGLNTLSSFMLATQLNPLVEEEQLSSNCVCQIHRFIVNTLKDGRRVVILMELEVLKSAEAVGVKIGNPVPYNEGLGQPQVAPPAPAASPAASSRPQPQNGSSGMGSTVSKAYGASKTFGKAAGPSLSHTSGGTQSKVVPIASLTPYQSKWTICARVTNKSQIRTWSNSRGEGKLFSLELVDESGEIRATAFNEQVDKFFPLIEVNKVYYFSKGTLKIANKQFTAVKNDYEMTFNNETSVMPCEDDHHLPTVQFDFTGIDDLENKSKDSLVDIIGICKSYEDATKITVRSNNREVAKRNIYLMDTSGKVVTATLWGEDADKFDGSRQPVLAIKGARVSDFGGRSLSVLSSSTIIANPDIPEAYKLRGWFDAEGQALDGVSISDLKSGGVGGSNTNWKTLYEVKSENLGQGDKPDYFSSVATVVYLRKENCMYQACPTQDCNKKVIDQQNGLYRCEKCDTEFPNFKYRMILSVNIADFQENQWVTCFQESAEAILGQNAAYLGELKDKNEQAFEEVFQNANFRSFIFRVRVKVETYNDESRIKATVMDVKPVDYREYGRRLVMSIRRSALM", "UniProt P15927": "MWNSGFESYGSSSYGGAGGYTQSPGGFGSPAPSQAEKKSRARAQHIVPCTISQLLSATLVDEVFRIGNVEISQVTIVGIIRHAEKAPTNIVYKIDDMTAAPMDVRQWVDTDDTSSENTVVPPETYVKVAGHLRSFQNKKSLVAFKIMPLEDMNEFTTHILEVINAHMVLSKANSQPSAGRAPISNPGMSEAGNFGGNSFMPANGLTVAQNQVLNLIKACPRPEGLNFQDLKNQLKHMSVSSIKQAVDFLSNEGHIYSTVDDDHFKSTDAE"}, "source": "paper PMC7290032", "key": {"GST-MCM8IP RBM (human)": {"molecular_target": "T1, GST-MCM8IP RBM (human) (UniProt Q8N3J3)", "T1 sequence": "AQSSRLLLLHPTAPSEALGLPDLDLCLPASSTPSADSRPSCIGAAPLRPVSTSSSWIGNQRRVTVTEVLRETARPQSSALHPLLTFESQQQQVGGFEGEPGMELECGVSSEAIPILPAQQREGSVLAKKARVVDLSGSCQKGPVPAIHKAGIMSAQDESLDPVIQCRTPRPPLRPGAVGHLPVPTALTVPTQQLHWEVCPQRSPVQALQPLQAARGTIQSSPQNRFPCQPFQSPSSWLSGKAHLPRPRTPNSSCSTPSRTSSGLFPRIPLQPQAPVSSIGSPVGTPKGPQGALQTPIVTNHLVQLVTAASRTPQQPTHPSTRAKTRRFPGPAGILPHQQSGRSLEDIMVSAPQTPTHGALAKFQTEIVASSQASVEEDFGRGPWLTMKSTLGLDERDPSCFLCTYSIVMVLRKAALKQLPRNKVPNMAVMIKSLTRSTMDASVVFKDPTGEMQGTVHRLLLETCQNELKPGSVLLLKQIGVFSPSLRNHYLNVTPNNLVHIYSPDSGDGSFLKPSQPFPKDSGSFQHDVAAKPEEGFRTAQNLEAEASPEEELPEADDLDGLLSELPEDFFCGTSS", "assay": "pull-down; GST fusion from E. coli held on glutathione-agarose and washed, incubated 2 h at 4 °C with cleared lysate of bacteria expressing the partner; 20 mM Tris-HCl pH 7.5, 200 mM NaCl, 0.5% NP40; western blot; only the target purified"}, "[1]": {"molecular_target": "T2, GST-MCM8IP first 215 residues (human) (UniProt Q8N3J3)", "T2 sequence": "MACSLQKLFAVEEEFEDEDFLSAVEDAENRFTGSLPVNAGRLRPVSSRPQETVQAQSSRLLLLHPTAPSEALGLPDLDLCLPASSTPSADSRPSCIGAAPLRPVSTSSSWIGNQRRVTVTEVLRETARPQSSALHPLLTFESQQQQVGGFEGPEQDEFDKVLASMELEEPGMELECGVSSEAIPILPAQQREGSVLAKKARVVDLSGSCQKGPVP", "assay": "pull-down; GST fusion from E. coli held on glutathione-agarose and washed, incubated 2 h at 4 °C with cleared lysate of bacteria expressing the partner; 20 mM Tris-HCl pH 7.5, 200 mM NaCl, 0.5% NP40; western blot; only the target purified"}, "GST-MCM8IP WT (human)": {"molecular_target": "T3, GST-MCM8IP WT (human) (UniProt Q8N3J3)", "T3 sequence": "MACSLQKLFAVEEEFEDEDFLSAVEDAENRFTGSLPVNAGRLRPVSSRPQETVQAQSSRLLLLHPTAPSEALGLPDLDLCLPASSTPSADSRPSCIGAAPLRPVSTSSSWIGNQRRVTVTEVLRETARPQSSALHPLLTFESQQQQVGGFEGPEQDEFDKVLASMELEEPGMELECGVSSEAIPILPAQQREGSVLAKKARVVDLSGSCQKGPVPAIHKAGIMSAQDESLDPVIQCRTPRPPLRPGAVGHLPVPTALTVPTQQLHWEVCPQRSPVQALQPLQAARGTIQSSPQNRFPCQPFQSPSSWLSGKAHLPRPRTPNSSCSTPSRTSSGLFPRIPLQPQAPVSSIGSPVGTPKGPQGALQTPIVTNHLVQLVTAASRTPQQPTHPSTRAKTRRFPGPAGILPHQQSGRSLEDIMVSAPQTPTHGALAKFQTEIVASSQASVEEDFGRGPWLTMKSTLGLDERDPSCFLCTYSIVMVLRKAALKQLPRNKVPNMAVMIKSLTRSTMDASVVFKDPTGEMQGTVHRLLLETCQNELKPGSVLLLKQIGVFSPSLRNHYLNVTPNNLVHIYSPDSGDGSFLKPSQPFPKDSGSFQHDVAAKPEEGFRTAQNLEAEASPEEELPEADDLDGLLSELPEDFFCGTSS", "assay": "pull-down; GST fusion from E. coli held on glutathione-agarose and washed, incubated 2 h at 4 °C with cleared lysate of bacteria expressing the partner; 20 mM Tris-HCl pH 7.5, 200 mM NaCl, 0.5% NP40; western blot; only the target purified"}, "HA-MCM8IP WT (human)": {"molecular_target": "T4, HA-MCM8IP WT (human) (UniProt Q8N3J3)", "T4 sequence": "T3 sequence", "assay": "co-IP; anti-HA agarose from lysates of HEK293T cells expressing the HA-tagged bait; 50 mM Tris-HCl pH 7.5, 1% NP40, 150 mM NaCl, 4 h at 4 °C; western blot of endogenous partners"}}, "note": "No constants are given. Whether binding was seen depends on the method and setting. In cells and extracts the contact can be indirect. Some binding calls cover weakened binding; strength is not graded here. Tags and fused reporters may be left off the sequences shown."}
{"substance": "RPA1 (expressed in bacteria) (from UniProt P27694 1-616)", "values": [{"measurement": "binding", "setting": "GST-MCM8IP RBM (human)", "value": "no binding"}, {"measurement": "binding", "setting": "[1]", "value": "binds"}, {"measurement": "binding", "setting": "GST-MCM8IP WT (human)", "value": "binds"}]}
{"substance": "RPA1 (from UniProt P27694 1-616)", "values": [{"measurement": "binding", "setting": "HA-MCM8IP WT (human)", "value": "binds"}]}
{"substance": "RPA2 (from UniProt P15927 1-270)", "values": [{"measurement": "binding", "setting": "HA-MCM8IP WT (human)", "value": "binds"}]}
